From publication PMC4336329 (PLoS ONE, 2015)
About 14,000 (4.5%) of roughly 310,000 compounds showed an effect of 50% or more. The effect is printed as a negative number. The list shows a part of the results.

molecular target: human ether-à-go-go-related gene (hERG) potassium channel (human, UniProt Q12809); test: primary screen, population patch clamp on CHO cells stably expressing hERG
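Further: peak tail current of the secondary pulse compared with the same well before compound.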

Sequence of human ether-à-go-go-related gene (hERG) potassium channel (Q12809 whole entry, looked up): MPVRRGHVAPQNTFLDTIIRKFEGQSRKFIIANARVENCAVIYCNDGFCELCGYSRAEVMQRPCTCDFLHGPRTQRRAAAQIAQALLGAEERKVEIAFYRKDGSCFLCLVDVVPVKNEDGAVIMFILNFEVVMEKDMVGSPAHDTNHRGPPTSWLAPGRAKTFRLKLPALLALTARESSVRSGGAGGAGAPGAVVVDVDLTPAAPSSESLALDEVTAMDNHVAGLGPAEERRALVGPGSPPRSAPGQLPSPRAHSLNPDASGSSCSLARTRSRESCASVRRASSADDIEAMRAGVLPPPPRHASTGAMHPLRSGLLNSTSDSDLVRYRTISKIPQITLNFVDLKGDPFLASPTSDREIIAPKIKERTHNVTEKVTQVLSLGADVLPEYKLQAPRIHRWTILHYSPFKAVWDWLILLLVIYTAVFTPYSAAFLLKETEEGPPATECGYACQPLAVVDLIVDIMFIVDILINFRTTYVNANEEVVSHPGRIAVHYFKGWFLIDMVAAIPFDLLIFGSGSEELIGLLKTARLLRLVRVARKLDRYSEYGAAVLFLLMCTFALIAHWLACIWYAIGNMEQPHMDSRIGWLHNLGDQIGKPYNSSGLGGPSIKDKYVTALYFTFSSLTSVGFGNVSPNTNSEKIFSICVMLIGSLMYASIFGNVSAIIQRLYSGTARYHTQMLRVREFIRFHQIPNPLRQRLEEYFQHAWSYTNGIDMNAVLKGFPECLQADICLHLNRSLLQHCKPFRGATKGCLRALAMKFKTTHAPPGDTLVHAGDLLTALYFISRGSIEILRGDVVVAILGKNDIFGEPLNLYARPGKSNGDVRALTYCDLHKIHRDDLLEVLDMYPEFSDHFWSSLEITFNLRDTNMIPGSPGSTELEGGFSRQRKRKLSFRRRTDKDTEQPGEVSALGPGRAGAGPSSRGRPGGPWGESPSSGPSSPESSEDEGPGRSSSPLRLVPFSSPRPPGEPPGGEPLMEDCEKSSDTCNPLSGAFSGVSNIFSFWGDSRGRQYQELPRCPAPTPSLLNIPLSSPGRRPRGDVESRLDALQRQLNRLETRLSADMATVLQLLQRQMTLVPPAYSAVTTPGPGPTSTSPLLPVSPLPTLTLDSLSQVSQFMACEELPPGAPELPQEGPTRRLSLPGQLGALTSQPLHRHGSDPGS

Row | Structure (SMILES) | hERG current change (%, negative = inhibition) at 10uM
1 | Cc1ccc(NC(=S)Nn2cnnc2)c(C)c1 | 12%
2 | O=C(N/N=C/c1ccc(Br)cc1)c1cc[n+]([O-])cc1 | -21.2%
3 | O=C(COc1ccc(Br)cc1)Nc1ccc(NC(=O)c2ccccc2)cc1 | -1.94%
4 | NC(=O)c1ccccc1NS(=O)(=O)Cc1ccc(Cl)cc1 | -12.2%
5 | O=C(NCC(c1cccs1)N1CCOCC1)c1cc(-c2ccc(F)cc2)nc2ccccc12 (stereo not drawn) | -55.9%
6 | CCC(CC)c1nnc(NC(=O)CC(C)c2ccccc2)s1 (stereo not drawn) | 12.3%
7 | COc1ccc(NC(=O)N2CCCCCC2)cc1 | 13%
8 | O=C(Cn1cnc([N+](=O)[O-])n1)N/N=C/c1cccc2ccccc12 | 2.05%
9 | O=C(Nc1ccc(C(=O)N2CCCCC2)cc1)c1ccc(Br)cc1 | 3.55%
10 | COc1ccccc1N(CC(=O)NCCSCc1cccc(C)c1)S(=O)(=O)c1ccccc1 | -7.39%
11 | O=C(COC(=O)COc1ccc(Br)cc1)NCCC1=CCCCC1 | -14%
12 | COc1ccccc1CCNC(=O)NC1CCCCC1 | -12.1%
13 | COC(=O)[C@H](C)NC(=O)NCCC1=CCCCC1 | 7.48%
14 | CN1C(=O)NC(=O)/C(=C\C=C\c2ccccc2[N+](=O)[O-])C1=O | 10.9%
15 | O=C(O)C1CCCN1S(=O)(=O)c1cccc2nsnc12 (stereo not drawn) | 23.9%
16 | Cc1nn(-c2ccc(N3CCCCC3)nn2)c(C)c1CCC(=O)Nc1ccc(F)cc1 | -14.3%
17 | N#Cc1c(Nc2ccccc2Cl)s[nH]c1=O | 1.91%
18 | CC(C)CCNC(=O)CCc1nnc2ccc(N3CCC(C)CC3)nn12 | -24.8%
19 | O=C(Nc1ccc(C(=O)N2CCOCC2)cc1)Nc1cccc2ccccc12 | 23.4%
20 | CCC1CN(C(=O)NCc2ccccc2)c2cc(Cl)ccc2O1 (stereo not drawn) | 12.2%
21 | CC(C)c1ccc(NC2CCCN(C(=O)CN3CCOC3=O)C2)cc1 (stereo not drawn) | 11.1%
22 | COc1ccc(-n2c(O)c(/C(C)=N/N3CCCCCC3)c(=O)[nH]c2=O)cc1 | -17.2%
23 | Cc1cccc(C)c1OCc1cc(C(=O)N2CCN3CCCC3C2)no1 (stereo not drawn) | -19.5%

Row | Structure (SMILES) | hERG current change (%, negative = inhibition) at 10uM
24 | COC(=O)C1=C(c2ccc(Cl)c(C(F)(F)F)c2)C[C@@H]2CC[C@H]1N2C(=O)NCc1ccco1 | -13.6%
25 | COc1ccc(C(=O)N2CCc3[nH]nc(-c4ccccc4)c3C2)cc1 | -8.79%
26 | Cn1c(=O)[nH]c(=O)c2[nH]c(N(Cc3ccccc3)Cc3ccccc3)nc21 | -10.2%
27 | CN1CCN(NC(=O)c2cc([N+](=O)[O-])cc([N+](=O)[O-])c2)CC1 | -2.5%
28 | O=C(COC(=O)C1=NNC(=O)CC1)NCCc1ccccc1 | 17.4%
29 | O=S(=O)(/N=C(\Sc1ccccc1)c1ccccc1)c1ccc(Cl)cc1 | 14.3%
30 | COc1cc(C(=O)NCCc2cc3c(OC)ccc(OC)c3[nH]c2=O)cc(OC)c1OC | -1.48%
31 | COc1cc2ccccc2cc1C(=O)NNC(=O)c1ccccc1O | 7.31%
32 | CCOC(=O)CSc1nnc(Cn2nnc(-c3ccccc3)n2)n1C | 5.87%
33 | Cn1c(SCc2ccccc2C#N)nnc1-c1ccncc1 | 7.11%
34 | Cn1c(=O)cc(SCC(=O)N2CCCC2)c2cc(Cl)ccc21 | -10.1%
35 | CC(C)c1nnc(NC(=O)C2CCCO2)s1 (stereo not drawn) | 14.6%
36 | Cl.c1ccc(COc2cccc(CNCc3ccccn3)c2)cc1 | -45.2%
37 | COc1ccc2c(c1)N(C)/C(=C1/SC(=S)N(NC(C)=O)C1=O)S2 | 13.4%
38 | Cc1cc(S(=O)(=O)NC2CCCC2)ccc1-n1cnnn1 | 31.9%
39 | CC/C(Cc1ccccc1)=N\NC(=O)c1cc(C)oc1C | 2.03%
40 | Cc1ccc(OP(=O)(Nc2cccc(C)c2)Oc2ccc(C)cc2)cc1 | 11.5%
41 | Cc1ccccc1OCC(=O)Nc1ccc2oc(=O)ccc2c1 | 9.71%
42 | CN1CCC(N(C)S(=O)(=O)c2ccc(NC(=O)COc3ccc([N+](=O)[O-])cc3)cc2)CC1 | -7.65%
43 | COc1ccc(NC(=O)c2c(C)nn(Cc3ccccc3)c2C)cc1S(=O)(=O)N(C)C | 14.9%
44 | CCC(=O)NC(=S)Nc1ccc2oc(-c3ccc(OC)cc3)nc2c1 | 18.1%
45 | C/C=C/C=C\C(=O)Nc1cccc(C2=NOC3(C2)C[C@@H](C(N)=O)N(C(=O)c2cc([N+](=O)[O-])cc([N+](=O)[O-])c2C)C3)c1 (stereo partly drawn) | 14.1%
46 | CC(C)C(=O)NNC(=O)c1cc2sccc2s1 | 9.37%

Row | Structure (SMILES) | hERG current change (%, negative = inhibition) at 10uM
47 | C/C(=N\NC(=O)c1nnn(-c2nonc2N)c1-c1ccc2c(c1)OCO2)c1ccc(C)cc1 | 26.1%
48 | O=C(O)c1ccc2c(=O)n3c(nc2c1)/C(=C/c1ccccc1C(F)(F)F)CCCC3 | 4.09%
49 | CC(C(=O)c1ccccc1)n1cnc2ccccc2c1=O (stereo not drawn) | -2.46%
50 | COc1ccc2c(c1)c(=O)c(C(=O)c1ccc(C)cc1)cn2CC(=O)Nc1ccc(F)cc1 | -10.1%
51 | COc1ccc(OC)c(CNC(=O)CCn2nc(C)c3c(C)n(-c4ccccc4)nc3c2=O)c1 | 4.54%
52 | Nc1ccc2sc(N)nc2c1 | 12.2%
53 | COc1ccc(S(=O)(=O)N2CCCCC2)cc1N(C)S(=O)(=O)c1ccccc1 | -16%
54 | CCNC(=O)c1cnn(-c2ccccc2)c1-c1ccccc1 | 14.6%
55 | Cc1ccccc1NC(=O)c1cnn(-c2ccccc2)c1C | 9.83%
56 | O=C(CN1C(=O)c2ccccc2C1=O)NCCc1c[nH]c2ccc(Cl)cc12 | -0.54%
57 | CCC(C)N1C(=O)S/C(=C/c2ccc(Sc3nc4ccccc4[nH]3)o2)C1=O (stereo not drawn) | 13.6%
58 | Cc1cc(O)c(Sc2ccccc2)c(=O)o1 | 9.75%
59 | C/C(=N\NC(=O)c1c(Br)c(C)nn1C)c1cccc(NC(=O)c2ccccc2F)c1 | 11.1%
60 | CCC(=O)Nc1sc2c(c1C(N)=O)CCC2 | -15.7%
61 | CN(C)S(=O)(=O)c1ccc(Cl)c(C(=O)NC2CCCCCCC2)c1 | 7.33%
62 | CCCCCCCCc1nc(=S)[nH][nH]1 | 18.7%
63 | Cc1ccc(CNC(N)=S)cc1 | -1.2%
64 | O=C1C=C(c2ccc(Cl)cc2)C(=O)N1Nc1ccccc1 | 13.1%
65 | CCCCc1c(O)nc(N2CCN(Cc3ccccc3)CC2)[nH]c1=O | 1.41%
66 | CC12COC3(C(=O)Nc4cccnc4)CC1CCC32C (stereo not drawn) | -9.46%
67 | Cc1cc(Br)cc(Cl)c1OCC(=O)N1CCN(C(=O)c2ccco2)CC1 | -63.3%
68 | O=C(CNC(=O)c1ccc2c(=O)n3c(nc2c1)CCC3)Nc1ccc(F)c(F)c1 | -7.44%
69 | CCOC(=O)c1ccc(NC(=O)CSc2nnc(-c3cccs3)n2C)cc1 | -8.2%

Row | Structure (SMILES) | hERG current change (%, negative = inhibition) at 10uM
70 | O=C(CNCC1CCCO1)N1CCCc2ccccc21.O=C(O)C(=O)O (stereo not drawn) | 1.46%
71 | Oc1cccc(/C=N/Nc2cc(N3CCCC3)nc(N3CCCC3)n2)c1 | 4.43%
72 | O=C(COC(=O)c1ccccc1OCC(=O)Nc1ccc(Br)cc1)Nc1ccccc1 | 7.6%
73 | COc1ccc(C(=O)CC(=O)O)c2c1C=CC(C)(C)O2 | 5.95%
74 | Clc1cccc(Cl)c1Cl | 13.2%
75 | O=c1ccc(-c2nc3cc(Cl)ccc3n2Cc2ccccc2)c[nH]1 | -73.9%
76 | COc1c(C(=O)N2CCCC2)ccc2ccccc12 | 1.52%
77 | CN(C)CCCNCC(=O)Nc1ccccc1N1CCOCC1.O=C(O)C(=O)O | 14.2%
78 | NC(=O)N/N=C/c1ccc(-c2cccc(C(F)(F)F)c2)o1 | -4.87%
79 | Cc1ccc(CSC2=NCCN2C(=O)c2ccc([N+](=O)[O-])cc2)cc1 | -42.9%
80 | COc1cccc(CNC(=O)c2cccc(S(=O)(=O)N3CCN(c4ccc(F)cc4)CC3)c2)c1 | -26%
81 | Cc1nn(-c2ccccc2)c(C)c1/C=N/NC(=O)c1cc(-c2ccc(Cl)s2)[nH]n1 | 3.7%
82 | CC(C)C(C(=O)Nc1ccc(S(=O)(=O)N2CCOCC2)cc1)N1C(=O)c2ccccc2C1=O (stereo not drawn) | -16.2%
83 | CCOc1cc2[nH]c(=O)n(Cc3ccc(C(=O)NCCCN4CCC(C)CC4)cc3)c(=O)c2cc1OCC | -15.5%
84 | N#Cc1ccc(C(=O)Nn2cnnc2)cc1 | 11.5%
85 | CC(=O)Nc1ccc(S(=O)(=O)N2CCCN(S(=O)(=O)c3ccc(C)cc3)CC2)cc1 | -72.8%
86 | NC(=O)CCC1NC(=S)N(Cc2ccccc2)C1=O (stereo not drawn) | 7.85%
87 | Cc1ccc(NC(=O)CNc2ccc(OC(C)C)cc2)c(C)c1 | 2.21%
88 | Cl.NCC(O)c1ccc(O)cc1 (stereo not drawn) | 1.93%
89 | Cc1cccc(-n2c(C)nc3cc(C(=O)N4CCOCC4)ccc32)c1 | 13.1%
90 | CCOC(=O)c1c(NC(=O)Cn2c(=O)oc3ccccc32)oc(C)c1C(C)=O | 6.29%
